Measurements reported in the supplement of paper PMC9174493.
This is one part of the list. Single values of this set are uncertain. Values with irradiation are relative to irradiated vehicle.

Experiments:
A549-Dual [1] = experiment: NF-kB reporter (SEAP) activity, viability-corrected, relative to vehicle (fold change vs vehicle); higher = more activation of STING-IRF / NF-kB immune response reporter; conditions: 10 µM
A549-Dual [2] = experiment: ISRE reporter (Lucia luciferase) activity, viability-corrected, relative to vehicle (fold change vs vehicle); higher = more activation of STING-IRF / NF-kB immune response reporter; conditions: 10 µM
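Throughout, for NF-kB reporter (SEAP) activity, viability-corrected, relative to vehicle: viability correction based on the alamar blue assay, with concentrations leaving 10% survival or less dropped.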

Row | SMILES | NF-kB reporter (A549-Dual [1]; irradiation: 8 Gy/4 fr) | NF-kB reporter (A549-Dual [1]; irradiation: none) | ISRE reporter (A549-Dual [2]; irradiation: 8 Gy/4 fr) | ISRE reporter (A549-Dual [2]; irradiation: none)
1 | Cl.Cl.NCCc1c[nH]cn1 [Histamine 2HCl] | 0.727 | 0.737 | 1.04 | 0.902
2 | CC(=O)OCCC(C)CCC=C(C)C (configuration not stated) [Citronellyl acetate] | 1.1 | 0.792 | 1.02 | 0.612
3 | NNC(=O)c1ccncc1.Nc1ccc(C(=O)O)c(O)c1 [Pasiniazid] | 2.27 | 4.4 | 1.39 | 7.19
4 | CCOC(=O)c1cc(O)c(O)c(O)c1 [Ethyl gallate] | 1.2 | 0.936 | 1.08 | 0.75
5 | Cl.NCCCC[C@H](N)C(=O)O [L-Lysine hydrochloride] | 0.804 | 0.778 | 0.811 | 0.707
6 | O.OCC(O)C(O)C(OC1OC(CO)C(O)C(O)C1O)C(O)CO (configuration not stated) [Lactitol monohydrate] | 1.08 | 0.52 | 1.05 | 0.458
7 | COc1ccc(-c2coc3cc(O)ccc3c2=O)cc1 [Formononetin] | 0.487 | 0.524 | 0.394 | 0.355
8 | O=C[C@H](O)[C@@H](O)[C@@H](O)CO [L-(+)-Arabinose] | 1.62 | 0.687 | 1.74 | 0.722
9 | Cc1cc(/C=C/c2ccc3cc(N(C)C)ccc3[n+]2C)c(C)n1-c1ccccc1.Cc1cc(/C=C/c2ccc3cc(N(C)C)ccc3[n+]2C)c(C)n1-c1ccccc1.O=C([O-])c1cc2ccccc2c(Cc2c(O)c(C(=O)[O-])cc3ccccc23)c1O [pyrvinium] | 1.12 | 3.6 | 0.185 | 1.59
10 | COc1cc2ccc(=O)oc2c(OC)c1O [Isofraxidin] | 0.79 | 0.958 | 0.734 | 0.623
11 | CN1C2CCC1CC(OC(c1ccccc1)c1ccccc1)C2.CS(=O)(=O)O (configuration not stated) [Benztropine mesylate] | 0.486 | 1.06 | 0.556 | 1.48
12 | NC(=O)CC[C@H](N)C(=O)O [L-Glutamine] | 0.804 | 0.813 | 0.9 | 0.886
13 | CC1CCC2C(C)C(OC(=O)CCC(=O)O)OC3OC4(C)CCC1C32OO4 (configuration not stated) [Artesunate] | 0.823 | 1.32 | 0.444 | 2.15
14 | Cl.O=C(COc1ccc(Cl)cc1)N1CCN(Cc2ccc3c(c2)OCO3)CC1 [Fipexide hydrochloride] | 0.539 | 0.653 | 0.528 | 0.611
15 | CCOCCn1c(N2CCCN(C)CC2)nc2ccccc21.O=C(O)/C=C/C(=O)O.O=C(O)/C=C/C(=O)O [Emedastine Difumarate] | 1.08 | 1.56 | 0.819 | 0.879
16 | CC12CCC3c4ccc(O)cc4CCC3C1CCC2O (configuration not stated) [Estradiol] | 1.05 | 1.22 | 0.835 | 0.829
17 | COc1cc2c(cc1OC)-c1cc3ccc(OC)c(OC)c3c[n+]1CC2.[Cl-] [Palmatine chloride] | 0.848 | 0.749 | 0.968 | 1.4
18 | O=C(O)c1ccccc1 [Benzoic Acid] | 0.806 | 1.46 | 0.721 | 0.737
19 | CCCCCCCCCC(=O)OC1(c2ccc(Cl)cc2)CCN(CCCC(=O)c2ccc(F)cc2)CC1 [Haloperidol Decanoate] | 0.664 | 1.02 | 0.688 | 0.626
20 | Nc1nc(=O)c2nc(CNc3ccc(C(=O)NC(CCC(=O)O)C(=O)O)cc3)cnc2[nH]1 (configuration not stated) [Folic acid] | 0.969 | 0.66 | 0.927 | 0.637
21 | O=c1[nH]cnc2[nH]ncc12.[Na+] [Allopurinol Sodium] | 0.811 | 0.81 | 0.715 | 0.665
22 | Oc1c(Cl)cc(Cl)c2cccnc12 [Chloroxine] | 0.259 | 0.392 | 0.0836 | 0.184
23 | C[C@@H](O)[C@H](N)C(=O)O [L-Threonine] | 2.32 | 3.58 | 2.17 | 9.33
24 | CC(CCc1ccc(O)cc1)NCC(O)c1ccc(O)cc1.Cl (configuration not stated) [Ractopamine HCl] | 1.62 | 1.01 | 1.61 | 0.898
25 | Nc1ncn(C2CC(O)C(CO)O2)c(=O)n1 (configuration not stated) [Decitabine] | 0.643 | 1.1 | 0.606 | 1.4
26 | Cl.O=C1Cc2cc(CCN3CCN(c4nsc5ccccc45)CC3)c(Cl)cc2N1 [Ziprasidone HCl] | 0.999 | 0.863 | 0.792 | 0.599
27 | COc1cc2c(cc1OC)C(=O)C(CC1CCN(Cc3ccccc3)CC1)C2.Cl (configuration not stated) [Donepezil HCl] | 0.772 | 0.555 | 0.989 | 0.649
28 | CC1c2cccc(O)c2C(=O)C2=C(O)C3(O)C(=O)C(C(N)=O)=C(O)C(N(C)C)C3C(O)C21 (configuration not stated) [Doxycycline] | 0.535 | 0.819 | 0.448 | 0.536
